The values that follow come from PMC5092051.

The chains behind the UniProt entries cited, without tags or fusion partners.
UniProt Q15370: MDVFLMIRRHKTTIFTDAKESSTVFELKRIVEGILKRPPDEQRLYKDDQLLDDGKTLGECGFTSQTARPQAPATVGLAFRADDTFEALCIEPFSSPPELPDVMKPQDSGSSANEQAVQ

For experiment [1], the target named is T1, T7-tagged SOCS6 SH2 domain mutant R407K (mouse) (UniProt Q9JLY0).
T1 sequence: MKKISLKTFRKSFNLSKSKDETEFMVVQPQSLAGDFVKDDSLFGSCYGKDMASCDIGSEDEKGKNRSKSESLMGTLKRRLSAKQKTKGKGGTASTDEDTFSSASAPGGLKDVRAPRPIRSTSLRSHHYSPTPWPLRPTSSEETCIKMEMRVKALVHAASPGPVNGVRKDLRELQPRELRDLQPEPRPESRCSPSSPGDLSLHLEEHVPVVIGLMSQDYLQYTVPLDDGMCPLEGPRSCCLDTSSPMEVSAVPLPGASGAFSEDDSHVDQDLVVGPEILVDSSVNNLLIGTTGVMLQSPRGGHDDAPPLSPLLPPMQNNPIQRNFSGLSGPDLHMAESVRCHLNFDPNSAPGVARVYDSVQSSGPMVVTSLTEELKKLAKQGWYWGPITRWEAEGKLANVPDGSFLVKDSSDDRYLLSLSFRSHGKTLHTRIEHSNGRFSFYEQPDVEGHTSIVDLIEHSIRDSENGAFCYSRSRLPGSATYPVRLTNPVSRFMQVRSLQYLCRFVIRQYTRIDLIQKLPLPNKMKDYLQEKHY
In words: co-IP; anti-T7 antibody immunoprecipitates of HeLa cells transiently expressing T7-tagged wildtype or mutant SOCS6; Western blotting with antibodies to Cas, ElonginB and T7. (In general: Immunoblotting shows a protein as a band on a membrane.)

In experiment [2] the target is T2, T7-tagged wildtype SOCS6 (suppressor of cytokine signaling 6) (mouse) (UniProt Q9JLY0).
T2 sequence: T1 sequence with K407R
The experiment is described as above.

Experiment [3] addresses T1, T7-tagged SOCS6 SH2 domain mutant R407K (mouse). The experiment is described as above. The source holds these as a separate data set.
The target of experiment [4] is T2, T7-tagged wildtype SOCS6 (suppressor of cytokine signaling 6) (mouse). The description is as above. The source holds these as a separate data set.
In experiment [5] the target is T3, HA-tagged Cas (mouse) (UniProt Q61140).
T3 sequence: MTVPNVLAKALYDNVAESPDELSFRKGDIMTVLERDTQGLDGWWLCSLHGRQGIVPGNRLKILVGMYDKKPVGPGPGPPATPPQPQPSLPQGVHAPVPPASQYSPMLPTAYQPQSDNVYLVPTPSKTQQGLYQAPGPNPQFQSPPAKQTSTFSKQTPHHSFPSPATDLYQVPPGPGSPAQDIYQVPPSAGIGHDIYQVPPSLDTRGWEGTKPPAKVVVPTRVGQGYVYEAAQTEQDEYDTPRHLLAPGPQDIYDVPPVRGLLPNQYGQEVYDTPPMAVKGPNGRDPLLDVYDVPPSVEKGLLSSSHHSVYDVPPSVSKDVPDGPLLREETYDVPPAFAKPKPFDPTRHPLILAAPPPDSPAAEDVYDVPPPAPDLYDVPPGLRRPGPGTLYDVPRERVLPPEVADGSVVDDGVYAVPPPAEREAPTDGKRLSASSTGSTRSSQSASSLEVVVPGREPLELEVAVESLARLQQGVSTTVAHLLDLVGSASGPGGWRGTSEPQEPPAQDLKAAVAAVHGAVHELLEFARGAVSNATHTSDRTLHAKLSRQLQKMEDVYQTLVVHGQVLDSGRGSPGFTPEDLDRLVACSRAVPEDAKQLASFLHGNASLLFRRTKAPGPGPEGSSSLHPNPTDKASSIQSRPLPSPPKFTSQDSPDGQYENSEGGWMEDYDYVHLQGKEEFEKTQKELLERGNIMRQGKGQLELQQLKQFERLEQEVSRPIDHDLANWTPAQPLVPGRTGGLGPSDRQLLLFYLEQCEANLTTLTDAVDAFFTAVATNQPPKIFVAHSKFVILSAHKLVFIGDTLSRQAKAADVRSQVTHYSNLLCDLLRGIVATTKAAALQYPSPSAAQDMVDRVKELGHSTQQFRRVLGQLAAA
As to the kind of experiment: co-IP; HeLa cells co-transfected with mCherry constructs, pSGTSrcYF and pCAGHACas; 2 mM pervanadate for 30 min; TX100 lysis buffer; immunoprecipitation with rabbit anti-HA and protein A beads; blots with anti-HA or anti-mCherry.

Residue numbers refer to the chain shown, from its start. Read-outs that look alike come from different tables or passages of the source. Results are given in words; binding and its absence hold for the method and conditions named. In cells and extracts the contact can be indirect. Some results given as binding are weak or reduced against the parent protein; the word gives no strength. Tags and fused reporters may be left off the sequences shown.

“ElonginB, endogenous (from UniProt Q15370 1-118)”: the binding result in experiment [1] and in experiment [2] was “binds” each time.

B1: Cas (Crk-associated substrate/p130Cas/BCAR1), endogenous (protein, UniProt P56945 1-870)
chain: MNHLNVLAKALYDNVAESPDELSFRKGDIMTVLEQDTQGLDGWWLCSLHGRQGIVPGNRLKILVGMYDKKPAGPGPGPPATPAQPQPGLHAPAPPASQYTPMLPNTYQPQPDSVYLVPTPSKAQQGLYQVPGPSPQFQSPPAKQTSTFSKQTPHHPFPSPATDLYQVPPGPGGPAQDIYQVPPSAGMGHDIYQVPPSMDTRSWEGTKPPAKVVVPTRVGQGYVYEAAQPEQDEYDIPRHLLAPGPQDIYDVPPVRGLLPSQYGQEVYDTPPMAVKGPNGRDPLLEVYDVPPSVEKGLPPSNHHAVYDVPPSVSKDVPDGPLLREETYDVPPAFAKAKPFDPARTPLVLAAPPPDSPPAEDVYDVPPPAPDLYDVPPGLRRPGPGTLYDVPRERVLPPEVADGGVVDSGVYAVPPPAEREAPAEGKRLSASSTGSTRSSQSASSLEVAGPGREPLELEVAVEALARLQQGVSATVAHLLDLAGSAGATGSWRSPSEPQEPLVQDLQAAVAAVQSAVHELLEFARSAVGNAAHTSDRALHAKLSRQLQKMEDVHQTLVAHGQALDAGRGGSGATLEDLDRLVACSRAVPEDAKQLASFLHGNASLLFRRTKATAPGPEGGGTLHPNPTDKTSSIQSRPLPSPPKFTSQDSPDGQYENSEGGWMEDYDYVHLQGKEEFEKTQKELLEKGSITRQGKSQLELQQLKQFERLEQEVSRPIDHDLANWTPAQPLAPGRTGGLGPSDRQLLLFYLEQCEANLTTLTNAVDAFFTAVATNQPPKIFVAHSKFVILSAHKLVFIGDTLSRQAKAADVRSQVTHYSNLLCDLLRGIVATTKAAALQYPSPSAAQDMVERVKELGHSTQQFRRVLGQLAAA
Consider B1, for which the binding result in experiment [3] is on record as “no binding”; in experiment [4], “binds”.

B2: mCherry-SOCS6 (protein, UniProt Q9JLY0 1-533)
chain: T1 sequence with K407R
For the molecule B2, the binding entry in experiment [5] was “binds”.
